The other results are listed elsewhere or left out.
B1: chr7:63240916:63240917:-_ENSMUSG00000047037_ENSMUST00000052204|mus_mus|motif|central (ssRNA)
RNA: GGGAGUUCUACAGUCCGACGAUCUAGCAGACAGCCCAACUUGCCCAAGAUGUUGAGCUUUUCCUUCAGAAGGUAAGAAGCGGAAAUGGACCCAAACGGUACUCCAAGGGCACCUAAGGGAGUCACCAGGACUGUAGGGACCGCCAACAGAGGAUUGAGCAUCA
B2: chr3:144353948:144353949:-_ENSMUSG00000037062_ENSMUST00000163279|mus_hu|FALSE|FALSE (ssRNA)
RNA: GGGAGUUCUACAGUCCGACGAUCACCAAACAACUCUGAAAAUAACCCAUCAAAACAUAAUAUUAAAAUCAUUUGAUUUCUGUUGGAAAACCAGGUAAACAUAGUUUAAAUGCGUUUUUGUCUAUGAAAGCAUUCAGAAAAUUCCAACAGAGGAUUGAGCAUCA
B3: chr12:48362563:48362564:+_ENSG00000134291_ENST00000256686|hu_hu|motif|central (ssRNA)
RNA: GGGAGUUCUACAGUCCGACGAUCGAUGAAGGGUGAAUCAAGCCCCACAUAGACUCUUGGUAAAAACAAUUCUAACUUUCGGAAAAAAAAAAAAGCCAACACACUUUUUUCUUUCUUUUCAAAAAGCUCCCAGGCCUUUGGGAACAACAGAGGAUUGAGCAUCA
B4: chr11:69795057:69795058:+_ENSMUSG00000018559_ENSMUST00000108593|mus_hu|FALSE|FALSE (ssRNA)
RNA: GGGAGUUCUACAGUCCGACGAUCAUAUCGAACAGUUUGGUACUGAAUUACCGUGCGGAUCUGCCUCCGCAGAAGGUAAAUGAAGAAGCUCCAGAGCUUGGCGGCGAAGGCCACGAACGUGCGCAGCCCCAGCAGACACUGCGUCAACAGAGGAUUGAGCAUCA
B5: chr4:57314706:57314707:+_ENSG00000128050_ENST00000264221|hu_mus|hu_hu_hu_mus_True|58_108 (ssRNA)
RNA: GGGAGUUCUACAGUCCGACGAUCCAGUAUUUCAAAUAUAGCUUGUGUGGCAUGACUCAUGAUGUCCACUUCAGUCUGGCCUAUAAGAAGGCCAGCAAAACAGAAUUUUGCAGCAAUGAGUUGCUCCUCAGACCACUGUGGAUCCAACAGAGGAUUGAGCAUCA
B6: chr12:16048344:16048345:+_ENSG00000023734_ENST00000419869|hu_hu|hu_hu_hu_mus_True|68_78 (ssRNA)
RNA: GGGAGUUCUACAGUCCGACGAUCAGAUCGUCCAUAAGUAAUAACCAAAAUCUCUCCCUCAGGAAUAUAUUCCAUACUGCUAACAGACAUAUUAAAAUUCAGAGAUUUCACUUCUGUCAUUGUGGCAUGAUCCCAGAGCCGAACCAACAGAGGAUUGAGCAUCA
B7: 44612319_44612584_207_CDS_ENSG00000136271_ENST00000433257|human|control|control (ssRNA)
RNA: GGGAGUUCUACAGUCCGACGAUCUCUGGCUUCUCCAUCAGCACAGCUCUCUGAGAGACUGAGUCUUCAGCAGCUGAGACAUUGGCCACUCGGACAUCCCGAGCACAGUAGGUAGCCAGCUGCUGAAUCAUGGACUGUGCUUGCCAACAGAGGAUUGAGCAUCA
B8: chr14:22137345:22137346:+_ENSMUSG00000039197_ENSMUST00000045376|mus_hu|FALSE|FALSE (ssRNA)
RNA: GGGAGUUCUACAGUCCGACGAUCAAAAAGUAUAUCAACAUAAGGCAUAACUUUCAUCAAUGAUUCCUUGUAGAACUGGCUAAUAAACGGUGCAGAUAGAUUCAAAGUGAAAAUCCUGUUGUUUUCAGAAGCAUGGUGAGCCACCAACAGAGGAUUGAGCAUCA
B9: chr11:72025555:72025556:-_ENSMUSG00000020801_ENSMUST00000021157|mus_hu|motif|central (ssRNA)
RNA: GGGAGUUCUACAGUCCGACGAUCUCGCACACUGAGCAUUCACCAGCUCCUUUCGGAAGUGUUCAUAUUGGAGCAGCUCGGACAUGUGUAAACACUGAGGGUACUUUAGAUACUUGGCAUAUUCUGGGUCUUUCCAGUAAAGCACAACAGAGGAUUGAGCAUCA
B10: chr7:63240916:63240917:-_ENSMUSG00000047037_ENSMUST00000052204|mus_hu|motif|central (ssRNA)
RNA: GGGAGUUCUACAGUCCGACGAUCUAGCAGGCACCCCAACUUGCCCAAGAUGUUGAGCUUUUCCUUCAGGAGAUAGGAAGCGGAAAUGGACCCGAACGGUACUCCAAGGGCGCCCAGGGGGGUUACCAGGACCGUGGGGACCGCCAACAGAGGAUUGAGCAUCA
B11: chr6:136509389:136509390:+_ENSMUSG00000030213_ENSMUST00000032335|mus_hu|motif|central (ssRNA)
RNA: GGGAGUUCUACAGUCCGACGAUCAAUAUUAUUAUCAGCUUUAUUUUUCUCAUCCAAUGAGUCUUUACUCUGAAUUUGCUCGGAUUUUUCAUCAGCUCCAUUUUUUUCAAGAAAAUCAUCAUCUUUAUUGCUACUUGGUUCUAUCAACAGAGGAUUGAGCAUCA
B12: chr17:62496016:62496017:-_ENSG00000108654_ENST00000581693|hu_hu|motif|central (ssRNA)
RNA: GGGAGUUCUACAGUCCGACGAUCCAGAUAACACACAAUAUAAAGAGCAAUUAUGAAAAACAGACAUUUACAUAUACUUCGGAAGUCUUAUUGGGAAUAUCCUGUUGGCAUUGGAUAACCAAUCAUAGGUGCAGCUGCAGUAGCCAACAGAGGAUUGAGCAUCA
B13: chr6:64423786:64423787:+_ENSG00000118482_ENST00000393387|hu_hu|motif|central (ssRNA)
RNA: GGGAGUUCUACAGUCCGACGAUCAACAAAUCUUUGAAUAUACAGCAAUGUAAAACUUUUAAAAAUAUUAAAUUCCGGUAACGGGGGACCGUUGGUAUGAAGAAGGGAUGAUGAGCACUGGUACAGAGCACUCUGUACCAACACCAACAGAGGAUUGAGCAUCA
B14: chr12:39752152:39752153:-_ENSG00000139116_ENST00000544797|hu_mus|motif|central (ssRNA)
RNA: GGGAGUUCUACAGUCCGACGAUCGUACUUCAGAGUGUUUAACGUCUCCAUGAAAUCCCUGUCUGAAGGGCUGACGCAUGCGGUCAUGAUGGUUUGGCUGUUACCCCCAAGGGAAUCCUGCAAGAGUCUUGUCAGCUUAGAGUCCAACAGAGGAUUGAGCAUCA

What follows are binders tested against T1, UNK ZnF1-3 (human, UniProt Q9C0B0 31-174) (assay: nsRBNS (natural sequence RNA bind-n-seq); RBNS binding buffer (assumed for nsRBNS): 25 mM Tris pH 7.5, 150 mM KCl, 3 mM MgCl2, 0.01% Triton X-100, 500 ug/ml BSA, 20 U/ml SUPERase-In, 4 C; UNK is unkempt and MSI1 is Musashi-1; names of the RNAs are library labels; protein concentration not given here; high values mean tight binding).
T1 sequence: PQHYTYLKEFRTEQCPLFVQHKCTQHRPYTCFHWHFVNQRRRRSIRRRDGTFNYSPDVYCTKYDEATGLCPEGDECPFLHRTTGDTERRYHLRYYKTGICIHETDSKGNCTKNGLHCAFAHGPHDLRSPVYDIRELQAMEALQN
B1 showed a binding signal of 1.1 enrichment R. B2 showed a binding signal of 0.744 enrichment R. B3 was tested, and the binding signal was 1.66 enrichment R. Binder B4 has a binding signal of 0.477 enrichment R. For B5, the binding signal was 0.863 enrichment R. Binder B6 has a binding signal of 1.22 enrichment R. In the case of B7, the binding signal is reported as 0.34 enrichment R. Binder B8 has a binding signal of 1.06 enrichment R. In the case of B9, the binding signal is reported as 0.84 enrichment R. B10 gave a binding signal of 1.24 enrichment R. In the case of B11, the binding signal is reported as 0.383 enrichment R. Work on B12 yielded a binding signal of 2.07 enrichment R. For B13, the binding signal was 2.95 enrichment R. For B14, the binding signal was 0.724 enrichment R.
